The other results are listed elsewhere or left out. Single values are uncertain, as repeats are few or missing.
Test system: LOXIMVI
Test: cell count relative to DMSO control; melanoma cells; higher = more viable cells
Details: library dose: low library concentration; 72 h
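Further: cell number obtained by counting DAPI-stained nuclei in high-throughput microscope images with image analysis software, screen run in 1,536-well plates.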

SMILES | cell count
CCCCCCCCc1ccc(CCC(N)(CO)CO)cc1 [fingolimod] + CC1(C)NC(=O)N(c2ccc([N+](=O)[O-])c(C(F)(F)F)c2)C1=O [nilutamide] (first compound 2 µM, partner dose 1 µM) | 81.1%
Cc1ccc(NC(=O)c2cccc(N(C)C)c2)cc1NC(=O)c1ccc(O)cc1 + CO[C@@H]1[C@H](N(C)C(=O)c2ccccc2)C[C@H]2O[C@]1(C)n1c3ccccc3c3c4c(c5c6ccccc6n2c5c31)C(=O)NC4 [Midostaurin] (first compound 2 µM, partner dose 0.08 µM) | 74.8%
CCCCCCCCc1ccc(CCC(N)(CO)CO)cc1 [fingolimod] + Cc1cc(N2CCOCC2)cc2[nH]c(-c3c(NC[C@@H](O)c4cccc(Cl)c4)cc[nH]c3=O)nc12 [BMS536924] (first compound 2 µM, partner dose 0.2 µM) | 108%
CCCCCCCCc1ccc(CCC(N)(CO)CO)cc1 [fingolimod] + O=C(O)c1ccc(-c2c[nH]c3ncc(-c4ccccc4)cc23)cc1C1CCCC1 [GSK650394] (first compound 2 µM, partner dose 0.16 µM) | 135%
Cc1ccc(NC(=O)c2cccc(N(C)C)c2)cc1NC(=O)c1ccc(O)cc1 + OCCn1cc(-c2cnc3nnn(Cc4ccc5ncccc5c4)c3n2)cn1 [PF04217903] (first compound 2 µM, partner dose 1 µM) | 87.7%
NC(=O)c1ccc(N(C(N)=O)c2c(F)cccc2F)nc1-c1ccc(F)cc1F + C=CCn1c(=O)c2cnc(Nc3ccc(N4CCN(C)CC4)cc3)nc2n1-c1cccc(C(C)(C)O)n1 [MK1775] (first compound 0.4 µM, partner dose 0.02 µM) | 118%
CC(C)(C)c1cnc(CSc2cnc(NC(=O)C3CCNCC3)s2)o1 + CN(NC(=O)CC(=O)NN(C)C(=S)c1ccccc1)C(=S)c1ccccc1 [STA4783] (first compound 0.01 µM, partner dose 0.006 µM) | 51.7%
Cc1ccc(NC(=O)c2cccc(N(C)C)c2)cc1NC(=O)c1ccc(O)cc1 + Cn1cncc1[C@@](N)(c1ccc(Cl)cc1)c1ccc2c(c1)c(-c1cccc(Cl)c1)cc(=O)n2C [tipifarnib] (first compound 2 µM, partner dose 0.01 µM) | 98.3%
Cc1ccc(NC(=O)c2cccc(N(C)C)c2)cc1NC(=O)c1ccc(O)cc1 + NCC(=O)Nc1ccc(-n2nc(C(F)(F)F)cc2-c2ccc3c(ccc4ccccc43)c2)cc1 [OSU03012] (first compound 2 µM, partner dose 1 µM) | 65.8%
CCCCCCCCc1ccc(CCC(N)(CO)CO)cc1 [fingolimod] + CN(NC(=O)CC(=O)NN(C)C(=S)c1ccccc1)C(=S)c1ccccc1 [STA4783] (first compound 2 µM, partner dose 0.006 µM) | 58.7%
NC(=O)c1ccc(N(C(N)=O)c2c(F)cccc2F)nc1-c1ccc(F)cc1F + COc1cc2c(Oc3ccc4[nH]c(C)cc4c3F)ncnc2cc1OCCCN1CCCC1 [cediranib] (first compound 0.4 µM, partner dose 0.4 µM) | 82.4%
NC(=O)c1ccc(N(C(N)=O)c2c(F)cccc2F)nc1-c1ccc(F)cc1F + O=C(Nc1cccc(Cl)c1)Nc1ncc(CCNc2ncnc3ccsc23)s1 [SNS314] (first compound 0.4 µM, partner dose 0.0008 µM) | 77.4%
CC(C)(C)c1cnc(CSc2cnc(NC(=O)C3CCNCC3)s2)o1 + NC(=O)Nc1cc(-c2cccc(F)c2)sc1C(=O)N[C@H]1CCCNC1 [AZD7762] (first compound 0.01 µM, partner dose 0.02 µM) | 85.7%
CN(NC(=O)CC(=O)NN(C)C(=S)c1ccccc1)C(=S)c1ccccc1 + COc1cc2c(Oc3ccc4[nH]c(C)cc4c3F)ncnc2cc1OCCCN1CCCC1 [cediranib] (first compound 0.006 µM, partner dose 0.4 µM) | 103%
CCCCCCCCc1ccc(CCC(N)(CO)CO)cc1 [fingolimod] + C[C@@H]1CCN(C(=O)CC#N)C[C@@H]1N(C)c1ncnc2[nH]ccc12 [CP690550] (first compound 2 µM, partner dose 1 µM) | 133%
CCCCCCCCc1ccc(CCC(N)(CO)CO)cc1 [fingolimod] + COc1cc2c(Oc3ccc4[nH]c(C)cc4c3F)ncnc2cc1OCCCN1CCCC1 [cediranib] (first compound 2 µM, partner dose 0.4 µM) | 69.4%
CC(C)(C)c1cnc(CSc2cnc(NC(=O)C3CCNCC3)s2)o1 + NCC(=O)Nc1ccc(-n2nc(C(F)(F)F)cc2-c2ccc3c(ccc4ccccc43)c2)cc1 [OSU03012] (first compound 0.01 µM, partner dose 1 µM) | 83.3%
CCCCCCCCc1ccc(CCC(N)(CO)CO)cc1 [fingolimod] + NCC(=O)Nc1ccc(-n2nc(C(F)(F)F)cc2-c2ccc3c(ccc4ccccc43)c2)cc1 [OSU03012] (first compound 2 µM, partner dose 1 µM) | 35.4%
CCCCCCCCc1ccc(CCC(N)(CO)CO)cc1 [fingolimod] + NC(=O)Nc1cc(-c2cccc(F)c2)sc1C(=O)N[C@H]1CCCNC1 [AZD7762] (first compound 2 µM, partner dose 0.02 µM) | 93.1%
CCCCCCCCc1ccc(CCC(N)(CO)CO)cc1 [fingolimod] + CO[C@@H]1[C@H](N(C)C(=O)c2ccccc2)C[C@H]2O[C@]1(C)n1c3ccccc3c3c4c(c5c6ccccc6n2c5c31)C(=O)NC4 [Midostaurin] (first compound 2 µM, partner dose 0.08 µM) | 81.6%
Cc1ccc(NC(=O)c2cccc(N(C)C)c2)cc1NC(=O)c1ccc(O)cc1 + CN(C)S(=O)(=O)c1ccc2c(c1)/C(=C/c1cc3c([nH]1)CCCC3)C(=O)N2 [SU6656] (first compound 2 µM, partner dose 0.4 µM) | 124%
NC(=O)c1ccc(N(C(N)=O)c2c(F)cccc2F)nc1-c1ccc(F)cc1F + OCCn1cc(-c2cnc3nnn(Cc4ccc5ncccc5c4)c3n2)cn1 [PF04217903] (first compound 0.4 µM, partner dose 1 µM) | 126%
CC(C)(C)c1cnc(CSc2cnc(NC(=O)C3CCNCC3)s2)o1 + Cc1cc(N2CCOCC2)cc2[nH]c(-c3c(NC[C@@H](O)c4cccc(Cl)c4)cc[nH]c3=O)nc12 [BMS536924] (first compound 0.01 µM, partner dose 0.2 µM) | 78.1%
NC(=O)c1ccc(N(C(N)=O)c2c(F)cccc2F)nc1-c1ccc(F)cc1F + NCC(=O)Nc1ccc(-n2nc(C(F)(F)F)cc2-c2ccc3c(ccc4ccccc43)c2)cc1 [OSU03012] (first compound 0.4 µM, partner dose 1 µM) | 115%
